In PMC10502023, “N-terminal α-amino SUMOylation of cofilin-1 is critical for its regulation of actin depolymerization” (Nature Communications, 2023):

Biological target: F-actin (actin from rabbit muscle, polymerized) (rabbit, UniProt P68135)
Test: co-sedimentation; 5 μg CFL1 protein with 10 μg F-actin in 200 μl of 10 mM Tris-HCl (pH 8.0), 30 min at room temperature; 100,000 × g at 4 °C for 30 min; supernatant and pellet on SDS-PAGE, CBB stain
Conditions: both partners purified

binding result: binds
B1: purified recombinant CFL1^2KR (K112R/K114R) (natural protein)
chain: not shown
notes: cofilin-1 (CFL1), mouse, K112R/K114R; The methods describe one way of purification for the wild type and all mutants; source: E. coli BL21 (DE3), purified; not shown: 6xHis, N-terminal, cleaved; SUMO3, N-terminal, cleaved
